Laboratory results from article PMC4336329 (PLoS ONE, 2015).
Screen size: about 310,000 compounds; about 2,200 (0.71%) showed an effect of 50% or more. The effect is printed as a negative number. Some of the results follow.

Molecular target: human ether-à-go-go-related gene (hERG) potassium channel (human, UniProt Q12809)
Test: primary screen, population patch clamp on CHO cells stably expressing hERG

Chain of human ether-à-go-go-related gene (hERG) potassium channel (Q12809 whole entry, looked up): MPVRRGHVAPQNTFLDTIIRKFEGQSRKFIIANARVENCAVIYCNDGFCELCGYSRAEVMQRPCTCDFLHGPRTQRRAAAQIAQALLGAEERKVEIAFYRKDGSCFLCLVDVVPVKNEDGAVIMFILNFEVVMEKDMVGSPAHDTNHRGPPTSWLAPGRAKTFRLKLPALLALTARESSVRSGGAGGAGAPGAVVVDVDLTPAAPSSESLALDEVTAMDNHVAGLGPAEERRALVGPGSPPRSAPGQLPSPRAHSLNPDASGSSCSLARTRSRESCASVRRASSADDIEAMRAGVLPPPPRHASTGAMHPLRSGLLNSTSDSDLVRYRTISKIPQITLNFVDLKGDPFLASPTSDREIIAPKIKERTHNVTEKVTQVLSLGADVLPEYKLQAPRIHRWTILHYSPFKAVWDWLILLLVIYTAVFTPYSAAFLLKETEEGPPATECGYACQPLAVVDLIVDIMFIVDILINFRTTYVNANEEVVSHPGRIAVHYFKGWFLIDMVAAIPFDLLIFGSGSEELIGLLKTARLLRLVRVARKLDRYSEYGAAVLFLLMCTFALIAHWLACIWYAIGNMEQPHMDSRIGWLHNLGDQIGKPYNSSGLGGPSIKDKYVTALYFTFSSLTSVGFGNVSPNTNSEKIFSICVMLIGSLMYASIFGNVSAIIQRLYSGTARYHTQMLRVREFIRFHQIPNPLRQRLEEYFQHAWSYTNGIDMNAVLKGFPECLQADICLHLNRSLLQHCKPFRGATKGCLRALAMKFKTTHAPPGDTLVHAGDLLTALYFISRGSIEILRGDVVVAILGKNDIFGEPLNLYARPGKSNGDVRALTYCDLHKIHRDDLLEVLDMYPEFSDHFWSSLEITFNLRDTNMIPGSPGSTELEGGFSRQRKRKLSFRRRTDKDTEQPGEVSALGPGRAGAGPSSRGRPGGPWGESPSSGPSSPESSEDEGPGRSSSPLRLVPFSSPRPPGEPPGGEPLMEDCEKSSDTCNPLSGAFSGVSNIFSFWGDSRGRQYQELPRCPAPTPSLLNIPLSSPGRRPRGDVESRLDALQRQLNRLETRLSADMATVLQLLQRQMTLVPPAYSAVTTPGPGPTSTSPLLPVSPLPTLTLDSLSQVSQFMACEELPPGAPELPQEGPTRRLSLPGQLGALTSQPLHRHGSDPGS

Compound | hERG current change (%, negative = inhibition) at 1uM [%]
CCCN1CCN(C2CCCCC2NS(=O)(=O)c2ccccc2)CC1 (stereo not shown) | -6.79
COc1ccc(NC(=O)[C@@]2(CC(=O)O)CC(/C=C/c3ccccc3)=NO2)cc1 | 24.9
COc1cccc(C2c3c(oc4ccccc4c3=O)C(=O)N2c2ccccn2)c1 (stereo not shown) | 0.551
COCCN(C(=O)CSc1nc2ccccc2o1)c1c(N)n(Cc2ccccc2)c(=O)[nH]c1=O | -4.44
CC(C)(C)N1NC2(CCCCC2)NC1=S | -0.414
CCCCN1C(N)=NC[C@@H]1C(C)O (stereo partly shown) | 14.1
CC(C)C[C@H](NC(=O)c1nc[nH]c1C(=O)N1CCC(C)CC1)C(=O)OCc1ccccc1 | 13.1
Cc1cc(C)n(-c2ccc(C(=O)OC(C)C)cc2)n1 | 4.09
COc1ccc(NC(=S)NC2CCN(Cc3ccccc3)CC2)cc1OC | 54.9
NNC(=O)c1cc2cc3ccccc3nc2s1 | 8.54
CC1CCN(CCCNC(=O)c2n[nH]c(=O)c3ccccc23)CC1 | 10.2
O=C(Nc1ccccc1Cl)c1ccccc1Oc1ccc(C(F)(F)F)cc1[N+](=O)[O-] | 9.49
COc1cc(CCC(=O)NCc2ccc(F)cc2)cc(OC)c1OC | 14
CNC(=O)c1cccc(NC(=O)C(C)c2ccc3cc(OC)ccc3c2)c1 (stereo not shown) | 11.3
CCn1nc(C(=O)NCc2ccco2)c(Cl)c1Cl | 6.69
Cc1cc(NC(=O)CCC(=O)N(c2ccc(F)cc2)C(C(=O)NC2CCCC2)c2ccccc2)no1 (stereo not shown) | 21
COc1ccc(NC(=O)c2sc(NC(=O)COc3ccccc3)nc2C)cc1 | 13.9
Cc1cc(Nc2ccc3c(c2)OCCO3)c2cccc(C)c2n1.Cl | -7.12
Cc1ccc(CCNC(=O)C2CCC(=O)N(Cc3ccccc3F)C2)o1 (stereo not shown) | 1.01
O=C(COC(=O)C1(c2ccccc2)CC1)NNC(=O)c1ccccc1 | 2.02
Oc1ccccc1C1=NN(c2ccccc2)C(c2ccc(F)cc2)C1 (stereo not shown) | 6.18
O=C(Nc1ccon1)Nc1ccccc1C(F)(F)F | 19

Compound | hERG current change (%, negative = inhibition) at 1uM [%]
Cc1cccc2sc(NC(=O)C3CCN(S(=O)(=O)c4cc([N+](=O)[O-])ccc4Cl)CC3)nc12 | 7.26
Cn1c(CC(=O)Nc2ccccc2)nnc1SCCOc1ccccc1 | 4.76
Cc1cc(C)n(CCc2nc(-c3cc4ccccc4o3)cs2)n1 | 5.19
c1ccc(-c2cc3ccccc3nc2N2CCCC2)cc1 | 10.7
CC(=O)NCCCCCCNC(C)=O | 5.3
Cn1c(=O)c(=O)n(C)c2cc(S(=O)(=O)N3CCN(Cc4ccccc4)CC3)ccc21 | -28.8
CCOc1ccc(N(CC(=O)N2CCN(c3ccccc3F)CC2)S(=O)(=O)c2c(C)noc2C)cc1 | 8.98
CC1CC(=O)c2cnc(Nc3cccc(C(F)(F)F)c3)nc2C1 (stereo not shown) | 10.9
CN1CCN(S(=O)(=O)c2ccc(NC(=O)c3cccc(F)c3)cc2)CC1 | 10.1
O=C(NNC(=O)C1[C@H]2CCCC[C@@H]12)c1ccc(=O)oc1 (stereo partly shown) | 13.6
CCOc1cccc(/C(O)=C2/C(=O)C(=O)N(CCN3CCOCC3)C2c2cccnc2)c1 (stereo not shown) | 14.6
CC(=O)c1cccc(NC(=O)c2ccc([N+](=O)[O-])o2)c1 | -6.03
COc1ccc(-c2nc(CN3CCC(C(=O)N4CCOCC4)CC3)c(C)o2)c(OC)c1 | 15.2
CCOc1ccc(-c2[nH]nc3c2C(c2ccc(O)cc2)C(C#N)=C(N)O3)cc1 (stereo not shown) | 7.41
Cc1ccc(NC(=O)c2sc3nc4c(c(-c5ccco5)c3c2N)CCC4)cc1 | 16.6
CC(=C\C(=O)O)/C(=C/c1ccc(C)o1)C(=O)O | 10.3
CC(=O)c1ccc(N(C(=O)CNC(=O)c2ccco2)C(C(=O)NCC2CCCO2)c2ccccc2)cc1 (stereo not shown) | 10.1
COc1ccc(CN(C)C(=O)c2cccc(C(=O)N(C)Cc3ccc(OC)cc3)c2)cc1 | -49.1
COc1ccccc1NC1=NC(CO)(CO)CS1 | 15.6
CCOc1ccccc1C(=O)NCC(=O)NC(C)c1ccc(-n2ccnc2)cc1 (stereo not shown) | -58.3
C[C@H](CCC(=O)NCC(=O)[O-])[C@H]1CC[C@H]2[C@@H]3[C@H](O)C[C@@H]4C[C@H](O)CC[C@]4(C)[C@H]3C[C@H](O)[C@]12C.O.[Na+] | -0.765
